# Test results from the BET-seq Pho4 binding data (Le et al. 2018).
# This is one part of the list. Values were computed here from the reads of four pooled replicates and scatter widely.
# Molecular target: T1, Pho4 (S. cerevisiae) (UniProt P07270)
# T1 sequence: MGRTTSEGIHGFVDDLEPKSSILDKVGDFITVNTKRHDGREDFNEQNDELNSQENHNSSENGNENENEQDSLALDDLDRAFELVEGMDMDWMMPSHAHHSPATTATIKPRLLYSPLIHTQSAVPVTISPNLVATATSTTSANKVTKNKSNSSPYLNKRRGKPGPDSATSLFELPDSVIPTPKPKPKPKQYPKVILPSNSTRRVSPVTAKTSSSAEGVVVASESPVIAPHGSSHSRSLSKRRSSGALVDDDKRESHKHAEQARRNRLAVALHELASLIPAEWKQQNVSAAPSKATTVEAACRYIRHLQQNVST
# Assay: relative binding free energy (BET-seq); higher = weaker binding
# Conditions: reference: library average
row,Sequence,relative binding free energy [kcal/mol]
1,TTAATCACGTGCGGTC,0.24
2,GGTTGCACGTGATCAG,0.04
3,ATACGCACGTGGGTGG,-0.37
4,CTACGCACGTGTGTGT,-0.12
5,TTAATCACGTGTTTCA,0.06
6,TTCGACACGTGACGGT,0.23
7,ACGTTCACGTGTAGGT,0.24
8,GACGACACGTGTAGGG,0.12
9,ACTGTCACGTGGGCTG,-0.15
10,TGCTACACGTGGTGGG,0.04
11,CATGGCACGTGAGGGG,0.15
12,TAAGGCACGTGTGTTT,-0.02
13,AAGAGCACGTGTTGTG,-0.07
14,ATTCTCACGTGCTGGT,0.11
15,TGTAGCACGTGTGAAA,-0.07
16,TAAGACACGTGAGGGG,0.16
17,TAGTTCACGTGAGGTT,0.36
18,AGAGGCACGTGGATGC,-0.12
19,AGGTGCACGTGTTAGA,0.03
20,GAGAACACGTGTGGGT,0.21
21,AGTAGCACGTGTTGTT,-0.1
22,TACGTCACGTGCGGTA,0.08
23,GCGGTCACGTGATTTT,0.49
24,GGTAACACGTGTTACT,0.24
25,AGTCGCACGTGGGGGT,-0.22
26,ATTATCACGTGTGGAT,0.12

row,Sequence,relative binding free energy [kcal/mol]
1,TGGTGCACGTGTTTGA,0.05
2,TCTAGCACGTGTTGGC,-0.1
3,ATGTTCACGTGAGGTG,0.23
4,GGTTCCACGTGGGTTT,-0.04
5,TCAGTCACGTGTATAT,0.09
6,TCGCGCACGTGTTGAG,-0.07
7,CTTTACACGTGCGTGG,-0.08
8,AGAGTCACGTGAGATG,0.14
9,ATTGCCACGTGTCTGG,0
10,ATCTGCACGTGTGTTG,-0.12
11,GCGAGCACGTGGTGCG,-0.08
12,CTTTACACGTGTGTTA,0.24
13,TGCGTCACGTGATGTT,0.3
14,ATTTTCACGTGCTTTT,0.26
15,TTAGCCACGTGGTGGA,-0.07
16,GTTAGCACGTGTTGCC,0.2
17,TTTGGCACGTGAATAA,0.03
18,TTCGTCACGTGTGTTG,0.06
19,GTTACCACGTGAGGTG,0.17
20,ATTGTCACGTGCAGGG,0.04
21,CAAGTCACGTGTTGGT,0.14
22,CTGGTCACGTGGTGGA,0.05
23,AGGATCACGTGGTAAG,0.05
24,TTATTCACGTGTAGCG,0.04
25,GAATGCACGTGTAGTA,0.08
26,TGGAACACGTGTGAGG,0.17

row,Sequence,relative binding free energy [kcal/mol]
1,TTATTCACGTGGTCTA,0.04
2,GGGCTCACGTGCGTGT,0.11
3,CGTGACACGTGGATTT,0.07
4,AAGGGCACGTGAGATT,0.11
5,TCATTCACGTGGTATT,0.18
6,TGATTCACGTGTGGGA,0.32
7,GGGAACACGTGGGCAG,-0.03
8,ATGTCCACGTGGGGCG,-0.09
9,AGTGGCACGTGATATT,-0.14
10,CGTTTCACGTGGTTGT,0.28
11,GTGTTCACGTGTGGGG,0.3
12,TCGGTCACGTGTCATG,0.15
13,TGAACCACGTGGTGGT,-0.02
14,TCAAGCACGTGTTTTT,0.04
15,GGGGGCACGTGTTGAA,-0.02
16,TTTAACACGTGGCTGG,0.04
17,GACCGCACGTGGGGTG,-0.32
18,CACGACACGTGGGTGT,-0.16
19,AGGTCCACGTGGTGAA,0.06
20,GGTAGCACGTGAAAGT,0.24
21,TTAAGCACGTGATATA,-0.09
22,TGGTACACGTGATACG,0.14
23,GGGGTCACGTGTGAGA,0.17
24,GGGGGCACGTGGGACA,-0.15
25,TGGGCCACGTGTAGTG,-0.04
26,TGGAGCACGTGTGAGC,0.15

row,Sequence,relative binding free energy [kcal/mol]
1,TAGATCACGTGGATTT,0.2
2,GGGGGCACGTGTGTGG,-0.02
3,TTGTTCACGTGACAAG,0.31
4,GTGTACACGTGGGTGT,-0.11
5,ATTTTCACGTGCTTGG,0.2
6,CGGGTCACGTGAGGAG,0.35
7,TGTAGCACGTGTAGCA,-0.04
8,GGGTACACGTGCGGTA,0.07
9,TGTTACACGTGCATTA,0.14
10,CGTGCCACGTGGGTAG,-0.1
11,GGTGGCACGTGTAGCT,-0.07
12,GTGAACACGTGTGTGA,0.01
13,AGTGACACGTGAGCTG,0.21
14,TTATTCACGTGTTCGA,0.24
15,GGAGGCACGTGAGTAA,0.27
16,TTGTCCACGTGGAATT,0.18
17,CAAGCCACGTGGGGTG,-0.16
18,TTTATCACGTGGAATG,0.17
19,AAATACACGTGGGGGG,-0.05
20,TTTTGCACGTGTGGCA,0.06
21,TTTTTCACGTGCGTCT,0.14
22,GTGGTCACGTGAATTG,0.28
23,GATTTCACGTGTGTAA,0.33
24,GTAGACACGTGGATGG,0.1
25,TGATGCACGTGGTAGA,-0.23
26,GACGTCACGTGTAGGT,0.18

row,Sequence,relative binding free energy [kcal/mol]
1,ATTAGCACGTGAATGT,0.2
2,TGGTCCACGTGATGGG,0.14
3,AGTGCCACGTGGTTAG,-0.03
4,CAGGGCACGTGTGTTG,-0.12
5,GAAGACACGTGGGGCG,-0.05
6,ATGAGCACGTGTGTCG,-0.04
7,ATGTACACGTGTTCTG,-0.06
8,CTTTTCACGTGCTTTA,0.19
9,TTGTACACGTGGTACG,-0.1
10,TAAATCACGTGAATGT,0.42
11,CTTAACACGTGTTGTT,0
12,GATGACACGTGGGTAG,-0.09
13,TTGTTCACGTGAAAAT,0.27
14,ATAATCACGTGGTTGT,0.08
15,CATGGCACGTGTTTAT,-0.13
16,GTATTCACGTGAGGGA,0.39
17,GGTATCACGTGGTCAA,0.06
18,GTGGACACGTGCTTGT,0.01
19,TGTTGCACGTGTGGAA,0.05
20,CGTGGCACGTGAGCCG,0.13
21,GTTGCCACGTGGGATG,-0.19
22,GTGTGCACGTGCAATA,0.05
23,TGGGCCACGTGAGTGT,0.05
24,TATGGCACGTGATTTG,-0.17
25,AGCTACACGTGGTGTG,-0.03
26,AGGGTCACGTGTGTTA,0.12

row,Sequence,relative binding free energy [kcal/mol]
1,GGTGGCACGTGCGAGC,-0.12
2,GGTGGCACGTGGCCCG,-0.25
3,TCTAGCACGTGGGCGT,-0.2
4,ATTGGCACGTGAGAAG,0.14
5,TAGTGCACGTGTCTTG,0.05
6,AATATCACGTGCGGGA,0.23
7,TGTGTCACGTGGCATC,-0.12
8,TTTCGCACGTGTTGAT,0.03
9,TATGACACGTGTATTG,-0.01
10,AGGGACACGTGAGGAA,0.18
11,CGTCGCACGTGGTGGA,-0.25
12,GTTAACACGTGAATGT,0.34
13,ATGTACACGTGGGGAC,-0.08
14,TTTATCACGTGTGCGT,0.19
15,AGTTGCACGTGGCGCT,-0.07
16,TTTTCCACGTGAGTAG,0.22
17,GTATTCACGTGATGCA,0.37
18,ATAAACACGTGTATAG,0.04
19,TGTGCCACGTGACAGG,-0.02
20,TAGGACACGTGTTTGT,-0.09
21,GTTATCACGTGATTAT,0.16
22,TCTGGCACGTGAGGAT,0.21
23,GTATTCACGTGGGTGG,0.1
24,AGTTCCACGTGTTGTA,0.02
25,CTTGTCACGTGGGGCT,0.03
26,GTCTGCACGTGGAGGA,0.02

row,Sequence,relative binding free energy [kcal/mol]
1,ATAAGCACGTGATAGG,-0.08
2,ACGAACACGTGGTGTT,-0.08
3,GTGGGCACGTGAGCTG,0.05
4,GGTAACACGTGCAGGT,-0.01
5,TGAACCACGTGGTGTT,-0.14
6,ATAGTCACGTGGAGTA,0.15
7,AACGACACGTGTGGGT,0.13
8,GGTTGCACGTGGCGAA,0
9,GGTATCACGTGAGGTT,0.34
10,GTGATCACGTGCAAGG,0.11
11,AGGTACACGTGTTCTG,-0.07
12,TGAGACACGTGGTTTA,-0.01
13,ATGGACACGTGGGGGA,-0.1
14,AGGGCCACGTGGGGTG,-0.27
15,TGGAACACGTGGAGCG,0.05
16,CAAGTCACGTGGGGGG,0
17,TTAGGCACGTGTTACG,-0.17
18,TTAATCACGTGTTTTT,0.17
19,TCGATCACGTGAGTGG,0.17
20,TAGCACACGTGTATGT,-0.02
21,CGGTTCACGTGTTTGA,0.31
22,AGAGCCACGTGGGGAT,-0.21
23,TGTGGCACGTGTGTTA,-0.09
24,TTAAGCACGTGTATAA,-0.07
25,CTGTGCACGTGTGAGA,0.08
26,TTTTACACGTGTGACA,0.04

row,Sequence,relative binding free energy [kcal/mol]
1,GTTTACACGTGGGACT,0.17
2,TGGAACACGTGGAGGC,0.24
3,GGACGCACGTGGGGTC,-0.13
4,ACTGTCACGTGGAGGT,0
5,TGGGTCACGTGAGGCA,0.25
6,GTTGTCACGTGGAAAG,0.18
7,AGGGGCACGTGGCTTT,-0.09
8,GGTTACACGTGGAGGT,0.11
9,GGGCGCACGTGGGATA,-0.08
10,TCTTGCACGTGATGGA,0.15
11,GGGTGCACGTGGACTA,0.03
12,CGAGGCACGTGGATTT,-0.05
13,GTTGCCACGTGTAAGT,0.02
14,GTACGCACGTGTGTTG,-0.25
15,TTTGGCACGTGTAGCA,-0.21
16,TTGGTCACGTGTACGT,0.11
17,GTGTTCACGTGTGTCC,0.25
18,ATGATCACGTGGAATT,0.16
19,TATGGCACGTGCTTAT,-0.22
20,GGGATCACGTGGGGCG,0.15
21,TATACCACGTGGAGGG,0.02
22,AGAGTCACGTGGTTCG,0.06
23,TTTCTCACGTGGATAT,0.21
24,TGTTACACGTGGTTGA,0.24
25,ATGTACACGTGAGGTC,0.25
26,ATTTCCACGTGTGGTT,0.08

row,Sequence,relative binding free energy [kcal/mol]
1,TGGTTCACGTGTATGA,0.39
2,ATTCTCACGTGGAGTG,0.15
3,TAGGGCACGTGATGCT,-0.04
4,TGGAGCACGTGGATGA,-0.23
5,TGTAGCACGTGGGCAC,-0.15
6,ATTGGCACGTGAGACT,0.15
7,TATGGCACGTGCTTGC,-0.12
8,TCTGGCACGTGCTGGA,-0.03
9,AATGACACGTGTGGTG,0.14
10,TATTGCACGTGCGGTT,-0.02
11,GCTAGCACGTGGTGGA,-0.1
12,AGTTCCACGTGGGGAT,-0.04
13,ACAGGCACGTGCTGGG,-0.18
14,TTGGGCACGTGCAGTG,-0.16
15,GAATGCACGTGGGGCA,-0.01
16,CTGAACACGTGATGTT,0.23
17,TTGTCCACGTGCTGGT,-0.02
18,AGTAGCACGTGGGGTG,-0.16
19,CGGTGCACGTGCGTTT,0.01
20,TTTCTCACGTGCTCGT,0.3
21,AGAGGCACGTGCTTGA,-0.14
22,GGGGTCACGTGAACTG,0.34
